Reference: PubChem BioAssay AID2675 (National Center for Advancing Translational Sciences (NCATS), 2010)
The whole screen tested about 280,000 compounds, of which about 100 (0.036%) were called active. The shares of active, inactive and inconclusive entries below differ from those in the screen. Calls follow the shape of the dose curve; as a rule, active = well fitted inhibition curve with a large enough effect in the signal ratio, with a control signal flat (not every such curve was filed as active); inconclusive = small, poorly fitted or top-dose-only effect, or effect the other way, or a change in a side signal; inactive = no such curve, though single readings can be large or run the other way; the % refers to the signal ratio. Potencies beside an inconclusive call are fits to weak or partial responses and may not hold up. A note “side channel” means that the fit belongs to a control or component signal, not to the main read-out.
% is scaled to controls: 0 for no effect and ±100 for the full control effect; potency is read from the fitted curve at half-maximal effect; tags tell the direction and shape of the fitted curve or compound fluorescence and quenching.

The molecules below were run against Muscleblind-like protein 1 (Homo sapiens) (UniProt Q9NR56) (assay: qHTS Assay for Inhibitors of MBNL1-poly(CUG) RNA binding). Conditions: TR-FRET MBNL1-His/biotin-(CUG)12 binding, 665/545 ratio; activity change, negative = inhibition: at 57.5 µM (top of the series).
Sequence of UniProt Q9NR56 (Q9NR56 whole entry, looked up): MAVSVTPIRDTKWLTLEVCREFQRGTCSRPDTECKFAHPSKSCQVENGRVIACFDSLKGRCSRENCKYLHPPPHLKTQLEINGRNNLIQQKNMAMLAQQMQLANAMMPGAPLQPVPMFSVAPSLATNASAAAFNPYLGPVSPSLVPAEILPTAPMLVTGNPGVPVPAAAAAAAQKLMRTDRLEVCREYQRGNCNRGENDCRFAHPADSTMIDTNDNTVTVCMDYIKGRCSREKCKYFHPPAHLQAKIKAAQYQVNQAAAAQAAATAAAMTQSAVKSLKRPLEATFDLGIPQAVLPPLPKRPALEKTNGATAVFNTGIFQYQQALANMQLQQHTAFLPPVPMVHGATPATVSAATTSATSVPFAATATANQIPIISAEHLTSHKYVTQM
Procedure, shortened: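 TR-FRET between His-tagged MBNL1 and biotin-(CUG)12 RNA, detected with Tb anti-His antibody (0.055 ng/ul) and streptavidin-XL665 (5 nM), 60 min at room temperature. Compounds titrated 92 nM to 58 uM; 665/545 nm ratio normalized to buffer and complex controls.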
`CCOC(=O)N1CCN(S(=O)(=O)c2cc([N+](=O)[O-])ccc2C)CC1` was tested, and the Potency was inconclusive: 15.8 µM [quencher, side channel, partial curve].
With `CC(=O)c1ccc(N2CCc3ccccc3C2)c([N+](=O)[O-])c1` the Potency was inconclusive: 15.8 µM [quencher, side channel, partial curve].
With `Cc1c(CCOC(=O)c2ccc(N3CCOCC3)c([N+](=O)[O-])c2)sc[n+]1CC#N` the Potency was inconclusive: 15.8 µM [quencher, side channel, partial curve].
In the case of `CCC(=O)Nc1ccc(C(=O)N/N=C/c2ccccc2[N+](=O)[O-])cc1`, the Potency is reported as inconclusive: 3.16 µM [quencher, side channel, partial curve].
In the case of `C=CCNC(=S)/N=c1/ccccn1CCC`, the “activity change, negative = inhibition” value is reported as inactive: -5.29%.
For `CN(C)c1nc(N)c([N+](=O)[O-])c(NCCO)n1`, the Potency was inconclusive: 17.8 µM [quencher, side channel, single point].
For `Cc1ccsc1/C=N/NC(=O)c1ccncc1`, the Potency was inconclusive: 25.1 µM [quencher, side channel, partial curve].
`CCOC(=O)c1sc(-c2ccccc2)cc1NC(=O)CSc1nnnn1C` was tested, and the Potency was inconclusive: 17.8 µM [quencher, partial curve].
`CC(C)(C)NC(=O)COc1ccc(CNc2ccc3[nH]c(=O)[nH]c3c2)cc1` was tested, and the Potency was inconclusive: 35.5 µM [quencher, side channel, single point].
For `CC(=O)N(C)c1ccc(NCc2cc(=O)oc3cc(C)c(O)cc23)cc1`, the Potency was inconclusive: 28.2 µM [quencher, side channel, partial curve].
For `Cc1cc(CNC(=O)c2ccc(C)c([N+](=O)[O-])c2)c2ccccc2n1`, the Potency was inconclusive: 15.8 µM [quencher, side channel, partial curve].
For `C=CC[C@@H]1Cc2c(Br)ccc(Br)c2[C@@H](CC=C)N1`, the “activity change, negative = inhibition” value was inactive: 2.37%.
With `COc1ccc(C2C(C(=O)c3ccccc3)N3c4ccccc4C=CC3C2[N+](=O)[O-])cc1` (stereo not drawn) the Potency was inconclusive: 28.2 µM [quencher, side channel, partial curve].
`O=C(CCNc1ccc(Cl)cc1)c1cccs1` was tested, and the Potency was inconclusive: 20 µM [fluorescent, side channel, partial curve].
With `COc1ccccc1CNC(=O)CC(C)c1ccccc1` (stereo not drawn) the “activity change, negative = inhibition” value was inactive: -4.56%.
`COc1cc(OC)c2c(N)c(C#N)c(C(F)(F)C(F)(F)F)nc2c1` was tested, and the Potency was inconclusive: 28.2 µM [fluorescent, side channel, partial curve].
`O=c1cccccc1NN=C1CCCCC1` was tested, and the Potency was inconclusive: 14.1 µM [quencher, side channel, partial curve].
For `CCCCCCn1c2c(c(=N)c3c1CCC3)CCC2`, the “activity change, negative = inhibition” value was inactive: 4.22%.
In the case of `COc1cc2c(cc1OC)C1O[C@](CCCCN3C(=O)c4ccccc4C3=O)(C2)Oc2c1c(=O)oc1ccc(F)cc21`, the activity change, negative = inhibition is reported as inactive: -4.2% [at 11.5 µM].
With `CN(C)S(=O)(=O)Oc1cccc(C(=O)Nc2ccc(Cl)c(Cl)c2)c1` the “activity change, negative = inhibition” value was inactive: -3.22%.
For `Cn1ncc(C#N)c1NC(=O)C1CC(c2c(F)cccc2Cl)=NO1` (stereo not drawn), the Potency was inconclusive: 2.82 µM [quencher, side channel, single point].
`O=C1C2CC=C(Cl)CC2C(=O)N1CCC[n+]1cccc2ccccc21` (stereo not drawn) was tested, and the activity change, negative = inhibition was inconclusive: 23.7% [phenotype inactive].
`CN(C1CCCCC1)S(=O)(=O)c1cccc2nsnc12` was tested, and the Potency was inconclusive: 28.2 µM [quencher, partial curve].
`COC(=O)N/N=C/c1c(C)c(C(=O)c2ccc(F)cc2)n2ccccc12` was tested, and the activity change, negative = inhibition was inconclusive: 15.3% [phenotype inactive].
For `COc1cccc2c1C(=O)c1c(O)c3c(c(O)c1C2=O)C[C@@](O)(C(=O)CO)C[C@@H]3O[C@H]1C[C@H](N)[C@H](O)[C@H](C)O1`, the Potency was inconclusive: 5.62 µM [quencher, side channel, partial curve].
For `CC(=O)Nc1ccc(-n2nnnc2SCC(=O)Nc2cccc(NC(=O)c3ccco3)c2)cc1`, the Potency was inconclusive: 63.1 µM [inhibitor, single point].
In the case of `CC(=O)c1ccc(NC(=O)C2=CC(c3cccs3)=NS(=O)(=O)N2C)cc1`, the Potency is reported as inconclusive: 10 µM [quencher, side channel, partial curve].
`CS(=O)(=O)N(CC(=O)NC1CCCCCC1)Cc1ccccc1` was tested, and the Potency was inconclusive: 4.47 µM [quencher, side channel, single point].
With `COC(=O)c1ccc(NC(=O)Nc2ccc([N+](=O)[O-])cc2)cc1` the “activity change, negative = inhibition” value was inactive: 2.44%.
For `O=C(Cn1nnc2ccccc2c1=O)NCc1ccco1`, the Potency was inconclusive: 39.8 µM [quencher, side channel, single point].
For `O=C(N/N=C/c1ccc(Cl)cc1)c1ccc2c(c1)OCO2`, the “activity change, negative = inhibition” value was inactive: 3.19%.
`COc1cccc2c1[C@@H]1CN(CCCCn3c(=O)[nH]c4c(sc5ncc(-c6ccccc6)nc54)c3=O)C[C@@H]1CO2` was tested, and the Potency was inconclusive: 15.8 µM [quencher, side channel, partial curve].
For `O=C(Nc1nnc(-c2ccc3c(c2)CCCC3)o1)c1ccc(Cl)cc1Cl`, the “activity change, negative = inhibition” value was inactive: -8.15%.
For `Cc1cc(C(=O)N/N=C/c2ccc3c(c2)OCO3)c2ccccc2n1`, the Potency was inconclusive: 14.1 µM [quencher, side channel, partial curve].
For `N#CC1CCN(c2ncccc2[N+](=O)[O-])CC1`, the Potency was inconclusive: 22.4 µM [quencher, side channel, partial curve].
With `O=[N+]([O-])c1ccc2[nH]c(O)c(N=NC(=S)Nc3cccnc3)c2c1` the Potency was inconclusive: 12.6 µM [quencher, partial curve].
`O=C(CSc1nc2ccccc2n1S(=O)(=O)c1cccc([N+](=O)[O-])c1)NCCc1ccccc1` was tested, and the Potency was inconclusive: 20 µM [quencher, side channel, single point].
In the case of `O=C(N/N=C/c1ccncc1)c1cccc(NC(=O)c2ccc(Cl)cc2)c1`, the Potency is reported as inconclusive: 79.4 µM [inhibitor, partial curve].
